Measurements reported in a collection of fitness landscapes (doi:10.1038/s41467-024-54723-y).
The full ranking holds about 18,000 sequences; the median of “TetR repression strength (sort-seq, GFP reporter)” is about 0.23, and the highest 2% start at about 0.68. The list shows a part of the results.

What follows are sequences tested against TetR (class B, Tn10) (UniProt P04483) (assay: TetR repression strength (sort-seq, GFP reporter) (relative to tetO2 = 1); higher = stronger repression). Conditions: E. coli.
Sequence of UniProt P04483 (P04483 whole entry): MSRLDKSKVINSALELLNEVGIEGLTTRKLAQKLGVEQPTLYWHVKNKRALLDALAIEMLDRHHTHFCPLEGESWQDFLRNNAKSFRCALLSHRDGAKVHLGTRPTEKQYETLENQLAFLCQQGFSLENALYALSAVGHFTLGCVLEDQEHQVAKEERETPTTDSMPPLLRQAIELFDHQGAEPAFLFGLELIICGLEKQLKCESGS
Outline: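 Three independent transformations of E. coli SIG10-MAX were made with a low-copy plasmid library randomizing eight operator positions between a constitutive promoter and sfGFP, with constitutive TetR. Following 5 h at 37 °C in LB plus 50 µg/mL chloramphenicol, 10^6 cells went through FACS into 13 fluorescence bins, and each bin was sequenced by Illumina. Repression strength was defined as the top bin index plus one minus the read-weighted mean bin, divided by the unaltered operator's value. Averages included only members reaching ≥30 reads in all replicates with a CV ≤0.5.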
With TCCCGATCAGTGATGGAGA the TetR repression strength was 0.482.
Sequence TCCCGAAGAGTGTGTGAGA has a TetR repression strength of 0.35.
TCCCGAGGAGTGCCAGAGA gave a TetR repression strength of 0.547.
TCCCGAATAGTGATGGAGA showed a TetR repression strength of 0.295.
TCCCCTCTAGTGGCCGAGA gave a TetR repression strength of 0.17.
TCCCAGAAAGTTCTAGAGA was tested, and the TetR repression strength was 0.329.
TCCCAGCTAGTGCTAGAGA was tested, and the TetR repression strength was 0.33.
For TCCCGTGTAGTTCTCGAGA, the TetR repression strength was 0.0552.
TCCCTATTAGTCTTAGAGA was tested, and the TetR repression strength was 0.389.
Sequence TCCCTTGTAGTGATCGAGA has a TetR repression strength of 0.4.
Work on TCCCGAAGAGTCTTAGAGA yielded a TetR repression strength of 0.279.
In the case of TCCCACACAGTTCAGGAGA, the TetR repression strength is reported as 0.205.
TCCCAAAGAGTTGTGGAGA gave a TetR repression strength of 0.266.
With TCCCGATTAGTTCTCGAGA the TetR repression strength was 0.223.
In the case of TCCCGGTTAGTTAGGGAGA, the TetR repression strength is reported as 0.229.
With TCCCTCGGAGTAGCAGAGA the TetR repression strength was 0.0942.
TCCCAGAGAGTTTGTGAGA gave a TetR repression strength of 0.43.
Work on TCCCTCGGAGTCAGAGAGA yielded a TetR repression strength of 0.181.
For TCCCTTCAAGTCAATGAGA, the TetR repression strength was 0.311.
TCCCTGGGAGTGGGTGAGA gave a TetR repression strength of 0.211.
TCCCTGTGAGTATCCGAGA showed a TetR repression strength of 0.213.
With TCCCTATAAGTTCCGGAGA the TetR repression strength was 0.037.
TCCCGGAGAGTGCCCGAGA showed a TetR repression strength of 0.102.
TCCCGGACAGTGAGCGAGA was tested, and the TetR repression strength was 0.459.
TCCCATCGAGTCAGTGAGA gave a TetR repression strength of 0.37.
With TCCCGATAAGTTCTGGAGA the TetR repression strength was 0.217.
Sequence TCCCGCTTAGTGGGCGAGA has a TetR repression strength of 0.184.
TCCCGGCAAGTTCAAGAGA showed a TetR repression strength of 0.409.
Sequence TCCCGGGAAGTTGATGAGA has a TetR repression strength of 0.0797.
Work on TCCCTTACAGTCTTGGAGA yielded a TetR repression strength of 0.19.
For TCCCTCAGAGTGTATGAGA, the TetR repression strength was 0.21.
TCCCCGGGAGTTGCTGAGA was tested, and the TetR repression strength was 0.0444.
Work on TCCCGAGAAGTGGCTGAGA yielded a TetR repression strength of 0.43.
TCCCAGGAAGTGCTCGAGA gave a TetR repression strength of 0.104.
With TCCCGGGCAGTGGTAGAGA the TetR repression strength was 0.22.
TCCCAGGCAGTGTCTGAGA was tested, and the TetR repression strength was 0.288.
With TCCCTTTAAGTTGGAGAGA the TetR repression strength was 0.216.
Sequence TCCCTACAAGTCTCAGAGA has a TetR repression strength of 0.139.
For TCCCGCGTAGTAAGTGAGA, the TetR repression strength was 0.299.
In the case of TCCCCCGGAGTTTAGGAGA, the TetR repression strength is reported as 0.408.
In the case of TCCCAGTTAGTGGGTGAGA, the TetR repression strength is reported as 0.172.
With TCCCGAGAAGTGGGTGAGA the TetR repression strength was 0.313.
Work on TCCCGGTCAGTATAGGAGA yielded a TetR repression strength of 0.219.
TCCCGGGTAGTGGCGGAGA showed a TetR repression strength of 0.268.
In the case of TCCCCGCAAGTTTCAGAGA, the TetR repression strength is reported as 0.183.
For TCCCATCGAGTGCGCGAGA, the TetR repression strength was 0.244.
TCCCCTACAGTACCTGAGA gave a TetR repression strength of 0.246.
Work on TCCCTACCAGTCGCGGAGA yielded a TetR repression strength of 0.967.
TCCCGAAGAGTGCTGGAGA was tested, and the TetR repression strength was 0.548.
TCCCGTTCAGTGTCTGAGA was tested, and the TetR repression strength was 0.289.
For TCCCTACCAGTAGCGGAGA, the TetR repression strength was 0.353.
TCCCGAGGAGTAAAAGAGA showed a TetR repression strength of 0.487.
With TCCCTCAAAGTTGACGAGA the TetR repression strength was 0.503.
TCCCTGGCAGTCCATGAGA gave a TetR repression strength of 0.519.
TCCCACTCAGTTCGAGAGA showed a TetR repression strength of 0.0835.
With TCCCGGCCAGTCACCGAGA the TetR repression strength was 0.19.
Sequence TCCCGGCGAGTGGCAGAGA has a TetR repression strength of 0.45.
TCCCGATGAGTGCTGGAGA showed a TetR repression strength of 0.27.
In the case of TCCCACAGAGTGAATGAGA, the TetR repression strength is reported as 0.382.
TCCCATTAAGTTCGTGAGA was tested, and the TetR repression strength was 0.227.
TCCCACTGAGTTGCCGAGA showed a TetR repression strength of 0.505.
For TCCCCAGAAGTTATTGAGA, the TetR repression strength was 0.152.
For TCCCATCGAGTTAAAGAGA, the TetR repression strength was 0.528.
Work on TCCCTTCGAGTAGTTGAGA yielded a TetR repression strength of 0.0991.
Sequence TCCCGTATAGTGGTTGAGA has a TetR repression strength of 0.104.
Work on TCCCGGTTAGTAGCAGAGA yielded a TetR repression strength of 0.0652.
With TCCCGTTGAGTGCCGGAGA the TetR repression strength was 0.123.
In the case of TCCCACACAGTCCGAGAGA, the TetR repression strength is reported as 0.599.
In the case of TCCCCGAAAGTCTGGGAGA, the TetR repression strength is reported as 0.18.
TCCCAACAAGTCATTGAGA gave a TetR repression strength of 0.0354.
In the case of TCCCAAGTAGTGAATGAGA, the TetR repression strength is reported as 0.0797.
With TCCCTGTCAGTAGGAGAGA the TetR repression strength was 0.197.
TCCCGGGGAGTCGGAGAGA was tested, and the TetR repression strength was 0.129.
TCCCTGAGAGTGTGAGAGA gave a TetR repression strength of 0.309.
TCCCCGTGAGTTGTGGAGA gave a TetR repression strength of 0.13.
Work on TCCCCTCCAGTCTCCGAGA yielded a TetR repression strength of 0.358.
For TCCCCGGAAGTCTTCGAGA, the TetR repression strength was 0.22.
In the case of TCCCTTCAAGTGTCAGAGA, the TetR repression strength is reported as 0.303.
With TCCCTGAGAGTTGCTGAGA the TetR repression strength was 0.221.
TCCCGCGGAGTATGGGAGA gave a TetR repression strength of 0.214.
TCCCTGCAAGTTGATGAGA showed a TetR repression strength of 0.246.
Sequence TCCCGGACAGTGCCCGAGA has a TetR repression strength of 0.655.
For TCCCGTGTAGTGCGGGAGA, the TetR repression strength was 0.281.
TCCCATTGAGTATTCGAGA gave a TetR repression strength of 0.22.
TCCCAAAGAGTCCATGAGA showed a TetR repression strength of 0.436.
Sequence TCCCACAGAGTGGGGGAGA has a TetR repression strength of 0.178.
TCCCAACGAGTATATGAGA gave a TetR repression strength of 0.102.
TCCCGCAAAGTGGGTGAGA gave a TetR repression strength of 0.18.
With TCCCCTGCAGTTGGAGAGA the TetR repression strength was 0.159.
In the case of TCCCAGCTAGTGCGGGAGA, the TetR repression strength is reported as 0.442.
TCCCGAAGAGTGCCGGAGA gave a TetR repression strength of 0.16.
For TCCCGAGGAGTTAAGGAGA, the TetR repression strength was 0.295.
TCCCTGTAAGTCTGAGAGA showed a TetR repression strength of 0.303.
TCCCGTTTAGTCTACGAGA was tested, and the TetR repression strength was 0.136.
Sequence TCCCGGTCAGTAGACGAGA has a TetR repression strength of 0.109.
In the case of TCCCAATCAGTTCCCGAGA, the TetR repression strength is reported as 0.382.
Sequence TCCCAGTTAGTACGAGAGA has a TetR repression strength of 0.491.
TCCCTCGCAGTGGGTGAGA gave a TetR repression strength of 0.205.
Work on TCCCTGAGAGTGGTTGAGA yielded a TetR repression strength of 0.213.
For TCCCGCGCAGTATTGGAGA, the TetR repression strength was 0.483.
Sequence TCCCAGTTAGTGTAGGAGA has a TetR repression strength of 0.179.
TCCCTGTTAGTCAGAGAGA gave a TetR repression strength of 0.0876.
TCCCTCTCAGTCCAGGAGA was tested, and the TetR repression strength was 0.261.
Work on TCCCTGTCAGTGGGAGAGA yielded a TetR repression strength of 0.333.
For TCCCAAGCAGTAAGCGAGA, the TetR repression strength was 0.207.
Sequence TCCCAACTAGTTGCTGAGA has a TetR repression strength of 0.382.
Sequence TCCCCCCCAGTTTAAGAGA has a TetR repression strength of 0.313.
Sequence TCCCCCATAGTATGAGAGA has a TetR repression strength of 0.207.
TCCCTTTGAGTGGCTGAGA was tested, and the TetR repression strength was 0.187.
TCCCTTTTAGTTGTGGAGA was tested, and the TetR repression strength was 0.291.
For TCCCGGTGAGTTGTCGAGA, the TetR repression strength was 0.355.
For TCCCAGATAGTCTCGGAGA, the TetR repression strength was 0.121.
For TCCCGTGAAGTTTAAGAGA, the TetR repression strength was 0.425.
In the case of TCCCGTTCAGTGAAAGAGA, the TetR repression strength is reported as 0.553.
Sequence TCCCTCGTAGTATGGGAGA has a TetR repression strength of 0.332.
In the case of TCCCTGGGAGTGGTTGAGA, the TetR repression strength is reported as 0.25.
For TCCCAGACAGTTACAGAGA, the TetR repression strength was 0.204.
TCCCGGTGAGTCAAAGAGA was tested, and the TetR repression strength was 0.338.
Sequence TCCCCACAAGTTAAGGAGA has a TetR repression strength of 0.26.
Sequence TCCCTAAGAGTGTTCGAGA has a TetR repression strength of 0.324.
Work on TCCCGAGGAGTGGAAGAGA yielded a TetR repression strength of 0.122.
TCCCGCAAAGTAGGTGAGA showed a TetR repression strength of 0.239.
With TCCCGTAGAGTCTCAGAGA the TetR repression strength was 0.257.
In the case of TCCCGTACAGTCTGAGAGA, the TetR repression strength is reported as 0.191.
TCCCAATGAGTCACTGAGA showed a TetR repression strength of 0.161.
Sequence TCCCTCCCAGTGACGGAGA has a TetR repression strength of 0.197.
With TCCCGGGGAGTCTGGGAGA the TetR repression strength was 0.179.
For TCCCCTTGAGTTAGGGAGA, the TetR repression strength was 0.207.
For TCCCAATCAGTCGGTGAGA, the TetR repression strength was 0.431.
TCCCAGGGAGTGATGGAGA showed a TetR repression strength of 0.471.
